Our source for the fractional viability values is the supplement of paper PMC5919970.

For this test, the system named is TYKNU. In words: fractional viability relative to vehicle; TYKNU is a high-grade serous ovarian cancer line; higher = less growth inhibition. Particulars: 72 h, genotype: OPA1 knockout (sgOPA1 #2). In a few lines:
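TYKNU control cells or lentiCRISPRv2 knockout derivatives were seeded at 500 cells per well into drug-stamped 384-well plates holding a ~2100-compound library at 2 or 10 μM, in duplicate. Cells were grown at 37 °C in 5% CO2 in RPMI 1640 with 10% FBS, and drug treatment lasted 72 h. Viability was read by Cell Titer Glo luminescence. Duplicate treatment wells were averaged and normalised to duplicate control wells from the same plate position.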

Where a name gives a salt, the structure may show the parent alone. Over roughly 2,000 compounds, “fractional viability relative to vehicle” has its median near 0.92; the lowest 2% begin near 0.11. Some of the results follow.

Consider `N#C/C(=C\c1ccc(O)c(O)c1)C(=O)NCc1ccccc1` [AG-490 (Tyrphostin B42)], for which the fractional viability came out at 1.03 (2uM) and 1.08 (10uM).
For `CCCOc1ccc(C(=O)OCCN(CC)CC)cc1N` [Proparacaine HCl], the fractional viability is, setting by setting: (2uM) 1.17; (10uM) 1.04.
The corresponding values for `CCN(CC)CCCCNc1ncc2cc(-c3cc(OC)cc(OC)c3)c(NC(=O)NC(C)(C)C)nc2n1` are 1.51 and 0.756.
For the compound `CC[C@@H](CO)NCCN[C@@H](CC)CO` [Ethambutol HCl], the fractional viability came to 0.969 (2uM) and 0.932 (10uM).
The corresponding values for `CC(C)C[C@H](NC(=O)CNC(=O)c1cc(Cl)ccc1Cl)B1OC(=O)C(CC(=O)O)(CC(=O)O)O1` are 0.335 and 0.299.
As to `O=C1CCC(N2C(=O)c3ccccc3C2=O)C(=O)N1` (stereo not given) [Thalidomide], the fractional viability runs as follows: (2uM) 1.07; (10uM) 1.03.
In the same order, the values of `c1cn2cc(-c3ccc4cn[nH]c4c3)nc(Nc3ccc(N4CCOCC4)cc3)c2n1` are 1.06 and 0.15.
In the same order, the values of `C[C@H](CCC(=O)NCCS(=O)(=O)O)[C@H]1CC[C@H]2[C@@H]3[C@@H](O)C[C@@H]4C[C@H](O)CC[C@]4(C)[C@H]3CC[C@]12C` [Sodium Tauroursodeoxycholate (TUDC)] are 0.832 and 0.834.
As for `C=CCn1c(=O)c2cnc(Nc3ccc(N4CCN(C)CC4)cc3)nc2n1-c1cccc(C(C)(C)O)n1`, the fractional viability runs as follows: (2uM) 0.482; (10uM) 0.582.
Turning to `Clc1ccc(C(Cn2ccnc2)OCc2csc3c(Cl)cccc23)c(Cl)c1` (stereo not given) [Sertaconazole nitrate], the fractional viability was 0.94 (2uM) and 0.76 (10uM).
The corresponding values for `O=C(Nc1cccc2cccnc12)c1ccc(N2C(=O)[C@@H]3[C@H](C2=O)[C@@H]2C=C[C@H]3C2)cc1` [IWR-1-endo] are 0.851 and 0.872.
Turning to `CC1(C)S[C@@H]2[C@H](NC(=O)Cc3ccccc3)C(=O)N2[C@H]1C(=O)O` [Penicillin G Sodium], the fractional viability was 0.867 (2uM) and 0.976 (10uM).
On to `CCCCc1nc(Cl)c(CO)n1Cc1ccc(-c2ccccc2-c2nnn[nH]2)cc1` [Losartan Potassium (DuP 753)], for which the fractional viability (2uM) was 1.09 and the fractional viability (10uM) was 1.1.
Compound `CCOc1cc(N)c(Cl)cc1C(=O)NCC1CN(Cc2ccc(F)cc2)CCO1` (stereo not given) [Mosapride Citrate] gave a fractional viability (2uM) of 1.15 and a fractional viability (10uM) of 0.973.
The corresponding values for `COC(=O)[C@H](CCSC)NC(=O)c1ccc(NC[C@@H](N)CS)cc1-c1ccccc1` are 0.769 and 0.691.
`Cc1cccc(Nc2ccccc2C(=O)O)c1C` [Mefenamic Acid] came in with a fractional viability (2uM) of 1.14 and a fractional viability (10uM) of 1.01.
With `CCC(C)n1ncn(-c2ccc(N3CCN(c4ccc(OCC5COC(Cn6cncn6)(c6ccc(Cl)cc6Cl)O5)cc4)CC3)cc2)c1=O` (stereo not given) [Itraconazole], the fractional viability (2uM) came to 0.902 and the fractional viability (10uM) was 0.947.
The corresponding values for `CN(C)CCNC(=O)c1cccn2c(=O)c3cc4ccccc4cc3nc12` are 0.61 and 0.294.
In the same order, the values of `C[C@H]1[C@H](OC(=O)CCC(=O)O)O[C@@H]2O[C@@]3(C)CC[C@H]4[C@H](C)CC[C@@H]1[C@@]24OO3` [Artesunate] are 0.674 and 0.481.
Regarding `O=C1OC(CN2CCOCC2)CN1/N=C/c1ccc([N+](=O)[O-])o1` (stereo not given) [Furaltadone HCl], the fractional viability stood at 1.2 (2uM) and 1.16 (10uM).
`Cc1ccc(-c2c(-c3nn(C)c4ncnc(N5CC[C@H](N6CCCCC6)C5)c34)cnn2C)cc1`: the fractional viability is, setting by setting: (2uM) 0.983; (10uM) 1.09.
`Cc1cc(C)c(CNC(=O)c2cc(-c3ccc(N4CCN(C)CC4)nc3)cc3c2c(C)cn3C(C)C)c(=O)[nH]1`: the fractional viability runs as follows: (2uM) 0.878; (10uM) 0.945.
In the same order, the values of `CC(C)(C(=O)NCC(F)(F)C(F)(F)F)C(=O)N[C@@H]1C(=O)Nc2ccccc2-c2ccccc21` are 0.939 and 1.01.
`CCc1cnn2c(NCc3ccc[n+]([O-])c3)cc(N3CCCC[C@H]3CCO)nc12` registered a fractional viability (2uM) of 0.572 and a fractional viability (10uM) of 0.51.
With `O=C1NC(=O)[C@@H](c2cn3c4c(cccc24)CCC3)[C@@H]1c1c[nH]c2ccccc12` [Tivantinib (ARQ 197)], the fractional viability reads like this: (2uM) 0.5; (10uM) 0.495.
In the same order, the values of `C[C@H]1Oc2cc(cnc2N)-c2c(nn(C)c2C#N)CN(C)C(=O)c2ccc(F)cc21` are 0.778 and 0.632.
The corresponding values for `C[C@@]1(c2cc(-c3cncnc3)c(F)cc2F)CCSC(N)=N1` are 1.12 and 0.948.
As to `O=C(O)C(S)=Cc1c[nH]c2ccc(F)cc12`, the fractional viability reads like this: (2uM) 0.79; (10uM) 0.825.
The corresponding values for `O=C(/C=C/C=C/c1ccc2c(c1)OCO2)N1CCCCC1` [Piperine] are 1.1 and 1.13.
The corresponding values for `O=c1c2ccccc2nc2n1CCc1c-2[nH]c2ccccc12` [Rutaecarpine] are 1.44 and 1.13.
In the same order, the values of `CCC(=O)OCC(=O)[C@@]1(OC(=O)CC)[C@@H](C)C[C@H]2[C@@H]3CCC4=CC(=O)C=C[C@]4(C)[C@@]3(Cl)[C@@H](O)C[C@@]21C` [Beclomethasone dipropionate] are 1.06 and 0.897.
On to `Cc1cc(C)nc(SCC(=O)Nc2ncc(Cc3cccc4ccccc34)s2)n1`, for which the fractional viability (2uM) was determined as 0.904 and the fractional viability (10uM) was determined as 0.931.
In the same order, the values of `COc1ccccc1N1CCN(CCCNc2cc(=O)n(C)c(=O)n2C)CC1` [Urapidil HCl] are 1.07 and 1.16.
In the case of `O=C(Nc1cccc(Nc2ncc(Br)c(NCCc3cnc[nH]3)n2)c1)N1CCCC1`, the fractional viability was 1.05 (2uM) and 0.982 (10uM).
The corresponding values for `COc1nc(N)nc2c1ncn2[C@@H]1O[C@H](CO)[C@@H](O)[C@@H]1O` [Nelarabine] are 1.11 and 1.03.
